Test results from PubChem BioAssay AID588795 (National Center for Advancing Translational Sciences (NCATS), 2011).
Screen size: about 390,000 compounds; about 1,400 (0.36%) were called active. Where a call stands in place of a potency, no number is given. Inconclusive means that the source gave no clear call. Such entries were picked first, then a sample of the others. Calls come from the whole dose curve; as a rule, active = well fitted inhibition curve with a large enough effect; inconclusive = small, poorly fitted or top-dose-only effect; inactive = no such curve, though single readings can be large or run the other way. Where the call is inconclusive, the potency comes from a doubtful curve fit.

Each molecule was assayed against Flap endonuclease 1 (Homo sapiens) (UniProt P39748) (assay: qHTS Assay for the Inhibitors of Human Flap endonuclease 1 (FEN1).). Settings: Recombinant FEN1 flap cleavage, fluorescence, 15 min; series mostly up to 114 µM.
Text: The major human flap endonuclease FEN1 is an efficient structure-specific enzyme that recognizes and cleaves a 5'-unannealed DNA flap. It belongs to the RAD2 family nucleases, which are involved in DNA metabolism and are highly conserved in prokaryotes and eukaryotes. FEN1 is a key enzyme in DNA replication, repair and maintenance of genomic stability. 5'-flap removal by FEN1 is critical for Okazaki fragment processing during lagging strand DNA synthesis, long-patch base excision repair (LP BER), and regulating or facilitating recombination events. […] Deletion of the yeast FEN1 gene, i.e. rad27, results in an increased frequency of short DNA (3-32 bp) repeats, micro- and mini-satellite formation, trinucleotide repeat expansion, spontaneous recombination events, and a severe growth defect in association with cell cycle arrest in late S/G2 phase. […] Cells from fen1-/- blastocysts show increased apoptotic cell death after ionizing radiation treatment, and chicken cells lacking the fen1 gene are hypersensitive to DNA alkylating agents, e.g. methylmethane sulfonate (MMS) and N-methyl-N'-nitro-N-nitrosoguanidine (MNNG), as well as hydrogen peroxide.
NIH Chemical Genomics Center [NCGC]
NIH Molecular Libraries Probe Centers Network [MLPCN]
Assay Submitter (PI): David Wilson, National Institute of Aging
Three uL of reagents (buffer in column 3 and 4 as negative control and 10 nM FEN1 in columns 1, 2, and 5-48) were dispensed into 1,536-well black solid-bottomed plate. Compounds (23 nL) were transferred via Kalypsys pin tool equipped with 1536-pin array (10 nL slotted pins, V&P Scientific, San Diego, CA). The plates were then incubated for 15 min at room temperature, and 1 uL substrate (50 nM final concentration) were added to start the reaction read twice at 0 min read and 15 min on ViewLux reader. Throughout the screen, reagent bottle and all liquid lines were chilled and made light-tight to minimize reagent degradation. All screening operations were performed on a fully integrated robotic system (Kalypsys, San Diego, CA) containing one RX-130 and two RX-90 anthropomorphic robotic arms (Staubli, Duncan, SC). Library plates were screened starting from the lowest and proceeding to the highest concentration, and a "double-dipping" step of the highest concentration was required to access higher concentrations of compounds. Vehicle-only plates, with DMSO being pin-transferred to the entire column 5-48 compound area, were inserted uniformly at the beginning and the end of each library in order to monitor for and record any shifts in the background, which can be affected by reagent dispensers or loss in enzyme activity overtime. Screening data was corrected, normalized, and concentration-effect relationships were derived by using publicly-available curve fitting algorithms developed in-house (http://ncgc.nih.gov/pub/openhts). A four parameter Hill equation was fitted to the concentration-response data by minimizing the residual error between the modeled and observed responses.
Note: nearly all actives have a fitted effect of over 65% in size.
Potency is the fitted concentration of half-maximal effect; tags give direction and shape of the fitted curve.

Sequence of UniProt P39748 (P39748 whole entry, looked up, the tested form may be a part): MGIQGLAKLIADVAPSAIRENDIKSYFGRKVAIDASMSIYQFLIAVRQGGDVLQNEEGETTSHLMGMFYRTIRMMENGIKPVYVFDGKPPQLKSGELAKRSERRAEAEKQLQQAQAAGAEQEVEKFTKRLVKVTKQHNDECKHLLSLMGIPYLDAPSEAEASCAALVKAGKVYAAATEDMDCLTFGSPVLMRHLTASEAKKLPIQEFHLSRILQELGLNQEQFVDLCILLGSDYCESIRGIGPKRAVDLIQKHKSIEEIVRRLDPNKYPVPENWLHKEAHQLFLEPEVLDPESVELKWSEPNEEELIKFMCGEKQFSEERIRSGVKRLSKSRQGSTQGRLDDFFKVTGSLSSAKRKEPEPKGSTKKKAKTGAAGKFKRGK

Structure (SMILES)	Potency
O=C(O)CCc1c2ccc(=O)c(O)c-2oc2c(O)c(O)ccc12	active: 1.41 µM
O=C(c1sc2cccc(F)c2c1Cl)N1CCN(c2ncccn2)CC1	inactive
Cc1cc(C)c2c(c1)C1C=CCC1C(C(=O)O)N2 (configuration not stated)	active: 22.4 µM
Cc1nn(C)cc1C1C(C#N)=C(N)N(c2cccnc2)C2=C1C(=O)CCC2 (configuration not stated)	inactive
O=C(NNC(=O)C1COc2ccccc2O1)c1ccccc1O (configuration not stated)	inactive
CSc1ccc(/C=N\Nc2nncn2N)cc1	inconclusive: 7.94 µM [inhibitor, partial curve]
CCOCCCNC1=C(Cl)C(=O)c2ccccc2C1=O	inconclusive: 10 µM [inhibitor, partial curve]
CCCCCn1c(=O)[nH]c2cc(C(=O)N3CCN(c4cccc(Cl)c4)CC3)ccc2c1=O	inactive
CCc1nc2oc3ccccc3c(=O)c2c(=O)n1-c1ccc(C)cc1	inactive
CCN(CC)S(=O)(=O)c1ccc(C(=O)NCc2ccc3c(c2)cc(C)n3C)cc1	inconclusive: 56.2 µM [inhibitor, partial curve, poor fit]
CCc1ccc(NC(=O)Cn2ccn(-c3ccc(OC)cc3)c(=O)c2=O)cc1	inactive
CN(C)S(=O)(=O)c1cccc(NC(=O)COC(=O)COc2ccc(Br)cc2)c1	inconclusive: 50.1 µM [inhibitor, partial curve, poor fit]
Cc1cccc(NC(=O)CC2Nc3cccc4cccc(c34)NC2=O)c1 (configuration not stated)	inconclusive: 2.24 µM [inhibitor, partial curve, poor fit]
Cc1cccc(NC(=O)c2cc3c(=O)n4ccccc4nc3s2)c1	inconclusive: 44.7 µM [inhibitor, partial curve, poor fit]
O=C(c1ccccc1C(=O)N(c1ccccc1)c1ccccc1)N1CCCCC1	inconclusive: 89.1 µM [inhibitor, single point]
C#CCN1[C@@H]2CCN(C2)c2cc(Br)ccc2S1(=O)=O	inconclusive: 79.4 µM [inhibitor, partial curve, poor fit]
Cc1cccc(NC(=O)CCc2nc3sc4c(c3c(=O)[nH]2)CCCC4)c1	inactive
CC(OC(=O)c1ccc([N+](=O)[O-])o1)C(=O)NC1CCCCC1C (configuration not stated)	active: 12.6 µM
CC(C)(C)c1cc(C(=O)NCCN2CCCC2)cc(C(C)(C)C)c1	inactive
Cc1oc2ncn(CC(C)C)c(=O)c2c1C(=O)NCc1cccc(Cl)c1	inactive
CN(CCOc1ccccc1)C(=O)c1cc(-c2ccco2)nc2ccccc12	inactive
Cc1cc(Cl)ccc1OCC(=O)OC(C)C(=O)N(C)C (configuration not stated)	inactive
